The record followed here is the supplement of paper PMC10369915.

B1: SHUT_ADE40_332_YA (peptide)
chain: KVEESLHYAFRHGAV
B2: SHUT_ADE02_365_YA (peptide)
chain: KLEETLHYTFRQGAV
B3: DNB2_ADE02_195 (peptide)
chain: ARALMDKYHVDNDLK
B4: POL_HV1YB_134 (peptide)
chain: DSSISRNYPLVQNAQ
B5: DNB2_ADE07_180 (peptide)
chain: MAVLMERYRLDNDLR
B6: SHUT_ADE12_349 (peptide)
chain: KIEECLHYTFRHGYV
B7: POL_HV1VI_128 (peptide)
chain: DKGVSQNYPIVQNLQ
B8: POL_HV2UC_130 (peptide)
chain: APPSGGNYPVQQIAG
B9: DNB2_ADE41_142 (peptide)
chain: MNVLMEKYHVENDEK
B10: POL_HV1YF_134 (peptide)
chain: DSNISRNYPLVQTAQ
B11: SPEN_Y632_YF (peptide)
chain: NQDRTYFESVR
B12: POL_HV2RO_135 (peptide)
chain: SSEKGGNYPVQHVGG
B13: SHUT_ADE02_365 (peptide)
chain: KLEETLHYTFRQGYV

The list shows a part of the results. Cut-off read from the data, not from the text of the source: active = 3.2 or more and inactive = the rest. The signal is at background level for most entries.
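Note: displayed peptides selected on beads carrying the immobilized SH2 domain, with library peptides lacking any tyrosine serving as negative controls.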

In the first assay the target is SHP2 C-SH2 domain E139D. The assay is described as follows: enrichment score (SH2-bound / input frequency) (ratio); bacterial display of known human phosphotyrosine sites (pTyr-Var adds point mutants) read by sequencing; higher = stronger binding; tyrosines were phosphorylated by kinases first. The settings on record: peptide library: Human pTyr.
In the case of B1, the enrichment score is inactive: 1.33.
Still for that read-out and setting: as for B2, the figure is inactive: 1.24; as for B3, inactive: 0.837; as for B4, inactive: 0.594.
The same measure, in the same setting: for B5 the value was inactive: 0.936; for B6, inactive: 1.88; for B7, inactive: 0.848.
On the same count and under the same terms, as for B8, the figure is inactive: 0.598; as for B9, inactive: 0.612.
Turning to B10, the enrichment score was inactive: 0.585.
Still for that read-out and setting: for B12 the value was inactive: 0.76.
On the same count and under the same terms, as for B13, the figure is inactive: 1.53.

Another assay has as its target SHP2 C-SH2 domain wild-type. The assay is described as above. The settings on record: peptide library: Human pTyr.
For the molecule B1, the enrichment score was inactive: 1.35.
On the same count and under the same terms, as for B2, the figure is inactive: 1.21; as for B3, inactive: 0.594; as for B4, inactive: 0.503.
On the same count and under the same terms, as for B5, the figure is inactive: 0.749.
The same measure, in the same setting: as for B6, the figure is inactive: 1.62.
For B7, the enrichment score was inactive: 0.555.
Same read-out and setting: as for B8, the figure is inactive: 0.501; as for B9, inactive: 0.921.
Same read-out and setting: for B10 the value was inactive: 0.577; for B12, inactive: 0.677.
On the same count and under the same terms, as for B13, the figure is inactive: 1.8.

A further assay concerns the target SHP2 N-SH2 domain L43F. The description is as above. The settings on record: peptide library: Human pTyr.
Regarding B1, the enrichment score was inactive: 0.887.
Same read-out and setting: for B2 the value was inactive: 1.16; for B3, inactive: 0.741; for B4, inactive: 0.815.
B5: the enrichment score was inactive: 0.723.
Still for that read-out and setting: for B6 the value was inactive: 1.29.
Still for that read-out and setting: as for B7, the figure is inactive: 0.707.
Same read-out and setting: for B8 the value was inactive: 0.591.
As for B9, the enrichment score is inactive: 1.03.
The same measure, in the same setting: as for B10, the figure is inactive: 0.456; as for B12, inactive: 0.722.
On to B13, for which the enrichment score is inactive: 1.21.

The target of a further assay is SHP2 N-SH2 domain T42A. The description is as above. The settings on record: peptide library: Human pTyr.
B1: the enrichment score is inactive: 0.911.
Still for that read-out and setting: as for B2, the figure is inactive: 1.05; as for B3, inactive: 0.778.
On the same count and under the same terms, for B4 the value was inactive: 0.686.
The same measure, in the same setting: for B5 the value was inactive: 0.667; for B6, inactive: 1.44; for B7, inactive: 0.623.
Take B8: the enrichment score was inactive: 0.738.
B9: the enrichment score was inactive: 0.738.
On the same count and under the same terms, as for B10, the figure is inactive: 0.606; as for B12, inactive: 0.634.
Same read-out and setting: for B13 the value was inactive: 1.45.

The next assay concerns the target SHP2 N-SH2 domain T52S. The description is as above. The following applies: peptide library: Human pTyr.
Regarding B1, the enrichment score is inactive: 0.995.
The same measure, in the same setting: as for B2, the figure is inactive: 1.1; as for B3, inactive: 0.911.
As for B4, the enrichment score is inactive: 0.878.
Same read-out and setting: for B5 the value was inactive: 0.783; for B6, inactive: 1.34; for B7, inactive: 0.734.
Same read-out and setting: as for B8, the figure is inactive: 0.692.
The same measure, in the same setting: as for B9, the figure is inactive: 0.818; as for B10, inactive: 0.677; as for B12, inactive: 0.659.
As for B13, the enrichment score is inactive: 1.73.

In the next assay the target is SHP2 N-SH2 domain wild-type. Described as above. The following applies: peptide library: Human pTyr.
Consider B1, for which the enrichment score is inactive: 1.07.
Same read-out and setting: as for B2, the figure is inactive: 1.14; as for B3, inactive: 0.752.
Same read-out and setting: for B4 the value was inactive: 0.668; for B5, inactive: 0.813; for B6, inactive: 1.6.
As for B7, the enrichment score is inactive: 0.699.
Still for that read-out and setting: as for B8, the figure is inactive: 0.608.
The same measure, in the same setting: as for B9, the figure is inactive: 1.44; as for B10, inactive: 0.662; as for B12, inactive: 0.704.
Consider B13, for which the enrichment score is inactive: 1.83.

Another assay concerns the target SHP2 C-SH2 domain E139D. Described as above. The following applies: peptide library: pTyr-Var.
On to B11, for which the enrichment score is inactive: 0.66.

For a further assay, the target named is SHP2 C-SH2 domain wild-type. The assay is described as above. The settings on record: peptide library: pTyr-Var.
For the molecule B11, the enrichment score was inactive: 0.678.

Another assay addresses SHP2 N-SH2 domain L43F. Described as above. The following applies: peptide library: pTyr-Var.
As to B11, the enrichment score is inactive: 0.736.

Another assay deals with SHP2 N-SH2 domain T42A. The assay is described as above. The following applies: peptide library: pTyr-Var.
B11: the enrichment score is inactive: 0.586.

A further assay addresses SHP2 N-SH2 domain T52S. Described as above. The settings on record: peptide library: pTyr-Var.
Consider B11, for which the enrichment score was inactive: 0.734.

The target in a further assay is SHP2 N-SH2 domain wild-type. The description is as above. The settings on record: peptide library: pTyr-Var.
Regarding B11, the enrichment score was inactive: 0.944.
